From the RNAGym collection of RNA variant scans (doi:10.7554/elife.90254)
The source gives no read counts; variants with many changes may rest on few reads.

B1: LINE1-mini (parent)
chain: GGCAGAGCUCAACACAGCGUGGCAAAGUGGCUGUGGCUAGACUGCC

Variants of: B1
Test: self-cleavage, relative activity (ratio to wild type); higher = more cleavage; in vitro, sequencing; the parent is a self-cleaving ribozyme

Row | Variant | self-cleavage
1 | GGCAGAGCUCAACACAGCGUGGCGAAGUGGCUUUGACUAGACUGCC [A24G G33U G36A] | 0.07
2 | GGCAGAGCUCAACACAGCGAGGCAAAGUUGCUGUGGCAAGACUGUC [U20A G29U U38A C45U] | 0.06
3 | GGCCGAGCACAAAACAGCGUGGCAAAUUGGCUGUGGCUAGACUGCC [A4C U9A C13A G27U] | 0.71
4 | GACAGAGCUCAACACAGAGUGGCAAAGUGGAUGUGGCUAAACUGCC [G2A C18A C31A G40A] | 0.03
5 | GGCAGAGGUCAAUACAGCUUGGCAAAGUGGCUGUGGAUAGACUGCC [C8G C13U G19U C37A] | 0.48
6 | GGUAGAGCUCAACACGGCGUGGCAAAGUGGCUCUGGCUAGGCUGCC [C3U A16G G33C A41G] | 0.12
7 | GGCAGAGGUCAACACAGCGUAGCAAAGUGGCUGUUGCUAGACUGCC [C8G G21A G35U] | 0.02
8 | GGCAGGACUCAACACUGCGUGGGAAAGCGGCUGUGUCUAGACUGCC [A6G G7A A16U C23G U28C G36U] | 0.06
9 | CGCAGAGCUCAACACAACGUGGCACAGUGGCUGUGGCUAGACUGCC [G1C G17A A25C] | 0.01
10 | GGCAGAGCUCAUCACACCGUGGCAAAGUGGCUGUGGCUAGACAGCC [A12U G17C U43A] | 0.09
11 | UGCAGAGCUAAACACAGCGUGGCAAAGUGGCUGUGGCUAGGCUGCC [G1U C10A A41G] | 0.02
12 | AGCAGAGCUCAACAAAGCGUGGCAAAGUAGCUGUGGCUAGACUUCC [G1A C15A G29A G44U] | 0.01
13 | GGCAGAGCUCGACACAGUGUGGCAUAGUGGCUGUGGCUAGACUGCC [A11G C18U A25U] | 0.01
14 | GGCGGAGCUCAACACAGCGUGGCAAAGAGGCUGUGGGUAGACUGCC [A4G U28A C37G] | 0.01
15 | GGCAGACCUCAACACAGCGGGGCAAAGUGUCUGUGGCUCGACUGCC [G7C U20G G30U A39C] | 0.09
16 | GGCAGAGCUCAACACAGCGUGGCAAAUUGGCUGUGACUAGACCGCC [G27U G36A U43C] | 0.08
17 | GGCAGAGCUCAACACAGCUUGGCAAAGUCGCUGUGGCUAGGCUGCC [G19U G29C A41G] | 0.02
18 | GGCACAGCUCAUCACAGAGGGGCAAAGUGGAUGUGGCUAGACUGCC [G5C A12U C18A U20G C31A] | 0.02
19 | GGCAGCGCUCAACGCAGCGUGGCAAAGAGGCUGUGGCUAGACUGCG [A6C A14G U28A C46G] | 0.23

Row | Variant | self-cleavage
20 | GGCAGAGCUCAACACAGCGUGGCAACGUGGCUGUAGCUAGACUGCG [A26C G35A C46G] | 0.06
21 | GGCAGAGCUCAACACAGCGUGGCCAAGUUGCUGUCGCUAGAAUGCC [A24C G29U G35C C42A] | 0.02
22 | GGCUGAGCGCAACACAGCGUGGCAAAGUGGCUGUGGGUAGACUGCC [A4U U9G C37G] | 0.02
23 | GGCAGAGCUCAACACACCGUGGCAAAGUUGCAGUGGCUAGACUGCC [G17C G29U U32A] | 0.13
24 | UGCAGAGCUCACCACAGCGUGGCAAAGUGGCUGUGGCUACACUGCC [G1U A12C G40C] | 0.01
25 | GGCAGAGCACAUCACAGCGUGGCAAAGUGGCUGUGGCUAGACUGAU [U9A A12U C45A C46U] | 0.14
26 | GGCAGAGCUCAACACAGCGAGGCAAAGUGGCUGUGGAAAGGGUGCC [U20A C37A U38A A41G C42G] | 0.04
27 | AGCAGAGCUCAACACAGCGUGGCAAAGUGGCUGUGGCUAGAAUGCU [G1A C42A C46U] | 0.09
28 | AGGAGAGCUCAACACAGGGUGGCAAAGUCGCUGUGGCUAUACUGCC [G1A C3G C18G G29C G40U] | 0.15
29 | GGCAGAGCUCAACACAGCGUGGCAUAGUGGGUGUGGUAAGGCUGCC [A25U C31G C37U U38A A41G] | 0.05
30 | AGCAGAGCCCACCACAGCGUGGCAAAGUGGCUGUGGCUAGACUGCC [G1A U9C A12C] | 0.04
31 | GACCGAGCUCAACACAGCUUGGCAAAGUGGUUGUGGCUAGACUGCC [G2A A4C G19U C31U] | 0.03
32 | GGCAGAGAUCAACACAGUGUGGCAAAGUGGCUGUGGGUAGACUGCC [C8A C18U C37G] | 0.12
33 | GGCAGUGCUCAACACAGCGUGGCCAAGUGGCUGUGGCUAUACUGCC [A6U A24C G40U] | 0.14
34 | CGCAGAGCUCAACACAGCGUGUCAAAGUAGCUGUGGCUAUACUGCC [G1C G22U G29A G40U] | 0.16
35 | GGCAGACCUCAACACACCGUGGCAAAGUGGUUGUGGCUCGACUGCC [G7C G17C C31U A39C] | 0.04
36 | GGCAGAGCUCAACACAGCGCGGCAUAGAGGCUGUGGCUAGACUGCC [U20C A25U U28A] | 0.37
37 | GGCAGAGCUCAACACAGCGUGGCAAAGUGGCCGUAGCCAGAGUGCC [U32C G35A U38C C42G] | 0.07
38 | GGGAGAGCUCAACACACCGUGGCAAAGUGGGUGUCGCUAGACUGCC [C3G G17C C31G G35C] | 1.58

Row | Variant | self-cleavage
39 | GGCAGAGCUCCACACAGCGUGGAAAUGUGGCUGUGGGUAGACUGCC [A11C C23A A26U C37G] | 0
40 | GGCAGAGCUCAACAUAGCGUGGCAAAGUGGCUGUCGCUAGACUACC [C15U G35C G44A] | 0.04
41 | GGCAUAGGUCAACACAUCGUGGCAAAGUGGCUGUGGCUAGACUGCC [G5U C8G G17U] | 0.24
42 | GGCAGAGCUCAACACAGCGUGGCAAAGUGACUGUGCCUAUACUGCC [G30A G36C G40U] | 0.05
43 | GGCAGAGCUCAACACAGCGUGGCAAAGUGGCUAUGGCUAGGGUGCC [G33A A41G C42G] | 0.13
44 | GGCAGAGUUCAACACAGCGUGGCAAAGAGGCGGUGGCUAGACUGCC [C8U U28A U32G] | 0.04
45 | GGCAGAGCUCAACACAGCGUCGCAGAGUGGCUCUAGCUACACUACC [G21C A25G G33C G35A G40C G44A] | 0.01
46 | GGCCGGGCUCAACACAGCGUGGCAAAGUGGCCGUGGCUUAAGGGCC [A4C A6G U32C A39U G40A C42G U43G] | 0.01
47 | GGCACAGCUCCACACAGCGUGGCAAAGUGGCUGUGGCUAGAUUGCU [G5C A11C C42U C46U] | 0
48 | UGCAGAGGUCAACACAGCGAGGUAAAGUGGCUUUGGCUAGACUACC [G1U C8G U20A C23U G33U G44A] | 0.02
49 | GGCACAGCUCAACCCAUCGUGGCAAAGUGGCUGCGGCGAGACAGGC [G5C A14C G17U U34C U38G U43A C45G] | 0.03
50 | GGCAGACCUCAACACAGCGUGGAAAAGUGGCUGGGGCUAGACUGCC [G7C C23A U34G] | 0.04
51 | GGAAGAGCUCAACACAGCGUGGCAAAGAGGCUGCGACUGUACUGCC [C3A U28A U34C G36A A39G G40U] | 0.07
52 | GGCAGAGCUCAACACAGCUUGACAAAGAGGCUGUGGCUAGACUGCC [G19U G22A U28A] | 0.29
53 | GGCAGAGCAAAACACAGCUUGGUAAAGUGGAUGGGGCUAAACUGCC [U9A C10A G19U C23U C31A U34G G40A] | 0.01
54 | GGCAGGGCACAACACAGCGUGGCAAAUUGCCUGUGGUUAGACUGCC [A6G U9A G27U G30C C37U] | 0.03
55 | GGCACAGCUAAACAUAACGUGGCGAAGUGGCUGUGGCUAGCCUGCC [G5C C10A C15U G17A A24G A41C] | 0.03
56 | AGCAGAGGUCAACACAGCGUGGCAAAGCGGCUGUGGCUAUACUGCC [G1A C8G U28C G40U] | 0.08
